In PubChem BioAssay AID493208 (National Center for Advancing Translational Sciences (NCATS), 2011):
In all, about 44,000 compounds went through this assay and about 340 (0.77%) were called active. Inconclusive results (about 5%) are left out. The call rests on the fitted dose curve; in most records, active means well fitted inhibition curve with a large enough effect; inconclusive means small, poorly fitted or top-dose-only effect; inactive means flat fitted curve, though single readings scatter. Some of the results follow.

Assay: Acumen qHTS Assay for Inhibitors of the mTORC1 Signaling Pathway in MEF (Tsc2-/-, p53-/-) Cells: Sytravon;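 further: plate controls were DMSO for no effect and rapamycin for full effect; nearly all actives have a fitted effect of over 50% in size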
Conditions: phospho-rpS6 immunofluorescence/PI, 24 h; series mostly up to 38.3 µM; activity change, negative = inhibition: at the top concentration
Outline: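 Plate MEFs (Tsc2-/-, p53-/-, empty vector) in DMEM/10% FBS; after 24 h add compound, incubate 24 h at 37 degree Celsius; fix in PFA/TX-100, block, stain phospho-rpS6 and 10 uM PI; scan at 488 nm; report % positive cells.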

Activity change, negative = inhibition, inactive:
O=C(Cc1ccc(Cl)cc1)NC1CC(=O)N(c2ccc3c(c2)OCCO3)C1 (configuration not stated) -5.07%
CC1CCN(C(=O)Cn2cc(SCC(=O)NCc3ccccc3)c3ccccc32)CC1 -1.52%
CCc1nnc(NC(=O)c2nc(SCc3cccc(C)c3)ncc2Cl)s1 1.89%
O=S(=O)(c1ccccc1)n1nc(-c2ccco2)nc1NCc1ccccc1 1.64%
CCC(Sc1nnc(-c2ccc(F)cc2)c(-c2ccc(F)cc2)n1)C(=O)NC1CCCC1 (configuration not stated) -8.84%
Cc1cccc(-n2ncc3c(NCCOCCO)ncnc32)c1 7.91%
O=C(CSc1nc2c([nH]c3ccccc32)c(=O)n1-c1ccccc1F)Nc1cccc(Cl)c1 -2.04%
CCC(=O)N1CCc2cc(S(=O)(=O)CCC(=O)Nc3cc(Cl)ccc3OC)ccc21 -1.74%
COc1cccc(N2CC(NC(=O)/C=C\c3ccccc3)CC2=O)c1 (configuration not stated) 2.01%
Cc1cccc(Cn2c(CN3CCC(C(=O)NC(C)C)CC3)cc3ccccc32)c1 -11.3%
COc1ccc(CNC(=O)C2CCN(S(=O)(=O)c3cccc(-c4noc(C)n4)c3)CC2)cc1 -8%
CCOc1ccc(CNC(=O)c2cc3c(=O)oc4ccc(C)cc4c3s2)cc1 -12.7%
Cc1ccccc1CNCCCSc1nnnn1C 2.45%
Cc1ccc(NC(=O)CSCc2cc(=O)c3ccccc3[nH]2)c(C)c1 0.084%
O=C(COCc1cc(-c2ccc(F)cc2)on1)Nc1cccc(C(F)(F)F)c1 -3.1%
CCCOc1ccc(C2C(=O)N(C3CCCCC3)CC(=O)N2C2CCCCC2)cc1OC (configuration not stated) 9%
COc1ccc(Cn2c(CO)cnc2SCc2ccccc2)cc1 -9.32%
Cc1ccc(-n2c(=O)c3c(C)c(C(=O)N(C)C)sc3n(Cc3ccccc3C)c2=O)cc1C 1.86%
COc1ccc(-c2cn3c(n2)sc2cc(C(=O)NCCCN4CCN(C)CC4)ccc23)cc1 -0.974%
Cc1cccc(Nc2nc(-c3ccccc3)nc3ccccc23)c1 7.17%
Cc1cccc(OC(=O)CSc2nnc(-c3cccs3)o2)c1C 2.42%
CSc1ncc(Cl)c(C(=O)Nc2c(C(=O)c3ccc(Cl)cc3)oc3ccccc23)n1 -11%
Cc1ccc(-n2ncc(C(=O)N3CCN(c4ccccc4F)CC3)c2C2CCN(C(=O)OC(C)(C)C)CC2)cc1C 3.89%
CCOC(=O)c1c(S(=O)(=O)N2CCCC(C(=O)Nc3cccc(CC)c3)C2)c(C)n(CC)c1C (configuration not stated) -28.7%
Cc1c(NC(=O)Cc2ccc(Cl)cc2)cccc1-c1nc2cccnc2s1 4.86%
CCOC(=O)c1c(C)[nH]c(C)c1S(=O)(=O)NCC(=O)Nc1cccc(Cl)c1 -1.81%
Cc1c(CNC2CCCCCC2)c(C(=O)O)c(C)n1Cc1cccc(Cl)c1 -1.56%
